# Where “and” joins values, the source holds several entries; their conditions need not be identical. Equal values may be shown once. The whole screen tested about 360,000 compounds, of which about 2,600 (0.72%) were called active. The inconclusive results got no clear call from the source; some entries with a clear call stand among them for comparison. Calls follow the shape of the dose curve; as a rule, active = well fitted inhibition curve with a large enough effect; inconclusive = small, poorly fitted or top-dose-only effect; inactive = no such curve, though single readings can be large or run the other way. Potencies of inconclusive entries are doubtful fits and often do not repeat. Where a structure was tested more than once in an assay, its records may differ in their call.
# Assay: Primary qHTS for Inhibitors of ATXN expression; also: nearly all actives have a fitted effect of over 55% in size
# Conditions: HEK-293 ATXN2-luciferase reporter, luminescence, 24 h; activity change, negative = inhibition: at 57 µM (top of the series)
# Procedure, shortened: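 ATXN2-luciferase reporter cells (luciferase flanked by upstream and downstream ATXN2 gene portions) were treated 24 h at 37 °C with compounds at up to 57 uM. SteadyGlo luminescence gave expression; GF-AFC fluorescence gave viability.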
# % is scaled to controls: 0 for no effect and ±100 for the full control effect; potency is read from the fitted curve at half-maximal effect; tags tell the direction and shape of the fitted curve.
Compound,Potency,"activity change, negative = inhibition"
Cc1cccc(-n2ncc3c(NCCc4ccc(S(N)(=O)=O)cc4)ncnc32)c1,"inconclusive: 31.6 µM [inhibitor, partial curve, poor fit]",–
COC(=O)CSc1nnc(-c2sc3ccccc3c2Cl)o1,active: 22.4 µM,–
CCc1ccc(OCC(=O)N(Cc2ccc(C(C)C)cc2)C2CCS(=O)(=O)C2)cc1 (configuration not stated),"inconclusive: 39.8 µM [inhibitor, single point]",–
COc1ccc(NC(=O)c2oc3ccccc3c2NC(=O)c2ccco2)c(OC)c1,–,inactive: 0.129%
Cc1c(/C=N\NC(=O)c2ccc([N+](=O)[O-])cc2)cnn1C,–,inactive: -14.5%
CCc1cccc(NC(=O)C2CCN(S(=O)(=O)c3ccc4c(c3)CC(C)N4C(C)=O)CC2)c1 (configuration not stated),"inconclusive: 11.2 µM [inhibitor, partial curve]",–
CC(=O)N/C(=C\c1ccccc1)C(=O)OCC(=O)N(CC(C)C)c1c(N)n(Cc2ccccc2)c(=O)[nH]c1=O,–,inactive: -6.16%
COc1ccc(CNC(=O)CCS(=O)(=O)c2cccc3nonc23)cc1,–,inactive: 98%
Cc1ccc(NCCN(C)C)c2c(=O)c3cc(O)ccc3sc12,active: 10.6 µM,–
Cc1ccc2c(=O)n3c(nc2c1)C(Cc1ccccc1)NC(=O)c1cc2ccccc2cc1-3 (configuration not stated),"inconclusive: 5.01 µM [inhibitor, partial curve, poor fit]",–
COc1cc(/C=C/C(=O)N2C(=O)c3cccc(N)c3C2=O)cc(OC)c1OC,"inconclusive: 39.8 µM [inhibitor, single point]",–
CC[C@@H]1CC=C[C@H]2[C@H]1C(=O)N(Cc1ccccc1)[C@H]2c1ccoc1,"inconclusive: 39.8 µM [inhibitor, single point]",–
Cc1cccc2nc(-c3ccccn3)c(Nc3ccccc3)n12,"inconclusive: 39.8 µM [inhibitor, single point]",–
COc1ccc(/C=N/NC(=O)CNS(=O)(=O)c2ccccc2)cc1,"inconclusive: 5.62 µM [inhibitor, partial curve, poor fit]",–
CC(C)Cn1cc(NC(=O)N2CCN(c3cccc(C(F)(F)F)c3)CC2)c2ccccc2c1=O,"inconclusive: 39.8 µM [inhibitor, single point]",–
N/C(CS(=O)(=O)c1ccc(F)cc1)=N\O,–,inactive: 0%
CC(C)C(Cl)=NOC(=O)Nc1ccc(F)cc1,"inconclusive: 37.7 µM [inhibitor, single point]",–
CC(C)n1nc(-c2cc3cc(O)ccc3[nH]2)c2c(N)ncnc21,active: 5.01 µM,–
CCOCCCN(Cc1ccco1)C(=O)c1cc2c(s1)-c1c(C)cccc1OC2,"inconclusive: 35.5 µM [inhibitor, single point]",–
CCCCOc1ccc(C(=O)N/C(=C/C=C/c2ccccc2)C(=O)NCCO)cc1,–,inactive: 2.44%
COc1ccc(OCC(=O)Nc2ccc(N3CCN(C(=O)c4ccco4)CC3)cc2)cc1,–,inactive: 8.87%
COc1ccc(-c2noc(N3CCC(C(=O)NCc4ccc(Cl)cc4)CC3)n2)cc1,"inconclusive: 0.141 µM [inhibitor, full curve, poor fit]",–
Cc1ccc(S(=O)(=O)CCC(=O)N(CCN2CCOCC2)c2nc3ccccc3s2)cc1,–,inactive: 8.33%

Compound,Potency,"activity change, negative = inhibition"
Cc1cc(C)cc(OCC(=O)NNC(=O)CCC(=O)NCc2ccccc2)c1,–,inactive: -8.3%
C[C@@H]1CN([C@H](C)CO)C(=O)c2c(c3ccccc3n2C)-c2ccccc2CO[C@@H]1CN(C)Cc1ccc(O)cc1,"inconclusive: 39.8 µM [inhibitor, single point]",–
CC(C)Cn1c(N)c(C(=O)COC(=O)c2cc(S(=O)(=O)N3CCOCC3)ccc2Br)c(=O)n(C)c1=O,"inconclusive: 39.8 µM [inhibitor, single point]",–
Clc1ccc(C(Cn2ccnc2)OCc2c(Cl)cccc2Cl)c(Cl)c1 (configuration not stated),"inconclusive: 28.2 µM [inhibitor, partial curve, poor fit] and inconclusive: 43.2 µM [inhibitor, single point] and inconclusive: 22.4 µM [inhibitor, single point]",–
CCN(c1ccc(OC)cc1)S(=O)(=O)c1ccc2[nH]c3c(c2c1)CCCCC3,"inconclusive: 22.4 µM [inhibitor, single point]",–
CC1=C(C(=O)OC2CCCC2)C(c2c(F)cccc2Cl)CC(=O)N1 (configuration not stated),"inconclusive: 35.5 µM [inhibitor, partial curve, poor fit]",–
N#Cc1cc2c(=O)n3ccccc3nc2n(-c2ccccc2Cl)c1=O,"inconclusive: 9.47 µM [inhibitor, single point]",–
CCCc1cc(CNC(=O)C2CCC(=O)N(Cc3ccccc3F)C2)on1 (configuration not stated),–,inactive: 19.6%
CC[n+]1c(/C=C/N(C)c2ccccc2)n(-c2ccccc2)c2ccc(-c3nc4ccccc4s3)cc21,active: 4.74 µM,–
COc1ccc2c(c1)c[n+](C)c1c3cc(OC)c(OC)cc3ccc21,active: 17.8 µM,–
Cn1c(Cc2ccccc2)nnc1SCC(=O)N1CCCCC1,–,inactive: -20.9%
COc1ccc2cc3cc(C(=O)Nc4ccc5c(c4)OCCO5)oc3nc2c1,"inconclusive: 28.2 µM [inhibitor, single point]",–
O=C1C=CC(=O)N1c1ccccc1N1C(=O)C=CC1=O,"inconclusive: 39.8 µM [inhibitor, single point]",–
Cc1nc(NC(=O)c2cc3ccccc3o2)sc1C,"inconclusive: 39.8 µM [inhibitor, single point]",–
Cc1cc(Cl)ccc1-c1cc2nc(NCCCN(C)C)n(C)c(=O)c2s1,active: 31.6 µM,–
COc1ccc(CCNC(=O)c2ccc(-n3c(C)cc4c3CCC(C)C4)cc2)cc1OC (configuration not stated),"inconclusive: 39.8 µM [inhibitor, partial curve, poor fit]",–
C=CCS(=O)(=O)c1nc2ccccc2s1,"inconclusive: 39.8 µM [inhibitor, single point]",–
CC(C)(C)c1ccc(CN2N=Nc3ccccc3S2(=O)=O)cc1,"inconclusive: 39.8 µM [inhibitor, single point]",–
Cc1ccc(S(=O)(=O)ON2C(=O)c3ccccc3C2=O)c(C)c1,"inconclusive: 23.8 µM [inhibitor, partial curve, poor fit]",–
O=C(c1ccc(-c2ccccc2)c(F)c1)C1CCCN(C(=O)c2cncs2)C1 (configuration not stated),"inconclusive: 31.6 µM [inhibitor, partial curve, poor fit]",–
COc1ccc(N=c2cc(-c3ccc(OC)cc3)oc3ccccc23)cc1,"inconclusive: 8.91 µM [inhibitor, partial curve, poor fit]",–
CC(C)C(=O)NC(c1cccc([N+](=O)[O-])c1)c1ccc2cccnc2c1O (configuration not stated),active: 2.67 µM,–
O=C(NNC(=O)c1ccccn1)c1ccc(OC(F)F)cc1,"inconclusive: 25.1 µM [inhibitor, single point]",–

Compound,Potency,"activity change, negative = inhibition"
Cc1cccc(N2CCN(C(=O)Cn3cnc4c3c(=O)n(C)c(=O)n4C)CC2)c1C,–,inactive: -3.97%
COc1ccccc1-c1ccc(SCc2ccccc2)nn1,–,inactive: 33.5%
O=C(NC(c1ccc(F)cc1)c1cnccn1)C1CCN(CCOc2ccc(Cl)cc2Cl)CC1 (configuration not stated),"inconclusive: 31.6 µM [inhibitor, single point]",–
Cc1csc(NC(=O)c2ccc3nc[nH]c3c2)n1,"inconclusive: 8.91 µM [inhibitor, single point]",–
Cc1cc(Nc2ccc(Br)cc2)nc2ccccc12,–,inactive: -28.1%
O=C1CC(c2ccc(Cl)cc2)c2cc3c(cc2N1)OCCO3 (configuration not stated),"inconclusive: 12.6 µM [inhibitor, partial curve, poor fit]",–
COc1cccc(C#CC2=CC(=O)C[C@H](c3ccc(F)cc3)C2)c1,"inconclusive: 39.8 µM [inhibitor, single point]",–
CCOC(=O)C1CCCN(C(=O)c2cc3nc(-c4cccc(OC)c4)cc(C(F)(F)F)n3n2)C1 (configuration not stated),–,inactive: -25.2%
COc1ccc(C(C)(NC(C)=O)c2nc(-c3cc(F)cc(F)c3)cs2)cc1 (configuration not stated),"inconclusive: 20 µM [inhibitor, partial curve, poor fit]",–
COc1ccc(NC(=O)CCN2CCN(S(=O)(=O)c3cc(Cl)ccc3OC)CC2)cc1,"inconclusive: 20 µM [inhibitor, partial curve, poor fit]",–
CCc1ccccc1NC(=O)C(CC)Oc1ccccc1-c1nnc(-c2ccccc2)o1 (configuration not stated),"inconclusive: 14.1 µM [inhibitor, partial curve, poor fit]",–
COc1ccc(-n2c(N)c(C(=O)NCc3ccco3)c3nc4ccccc4nc32)cc1,"inconclusive: 25.1 µM [inhibitor, partial curve, poor fit]",–
Nc1nc(F)nc2c1ncn2[C@@H]1O[C@H](CO)[C@@H](O)[C@@H]1O,"active: 1.72 µM and inconclusive: 17.8 µM [inhibitor, single point]",–
CCc1nc2c(OCc3cccc(Cl)c3)cccn2c1N(C)C(=O)c1ccco1,–,inactive: -16.3%
CCOc1ccc2nc(N(CCN(CC)CC)C(=O)/C=C/c3cccs3)sc2c1,–,inactive: -2.35%
CNC(=O)c1sc(SC)cc1-c1ccc(Cl)cc1,–,inactive: -9.21%
CC(C)Nc1nc(Cl)nc(NC2CCCCC2)n1,–,inactive: 16.7%
COc1cccc2sc(NN)nc12,–,inactive: -19.9%
Cc1[nH]c2ccc(F)cc2c1CCN(Cc1ccncc1)C(=S)Nc1cccc(F)c1,"inconclusive: 25.1 µM [inhibitor, single point]",–
CCCCCCCCCCCCCCCCn1cc[n+](C)c1,"active: 14.1 µM and inconclusive: 23.8 µM [inhibitor, partial curve, poor fit]",–
COc1cc(C(c2sc3nc(C)nn3c2O)N2CCC3(CC2)OCCO3)cc(OC)c1OC (configuration not stated),–,inactive: 2.42%
